Paper PMC4336329 (PLoS ONE, 2015)
In all, about 310,000 compounds went through this assay and about 14,000 (4.5%) showed an effect of 50% or more. The effect is printed as a negative number. This is one part of the list.

molecular target: human ether-à-go-go-related gene (hERG) potassium channel (human, UniProt Q12809); assay: primary screen, population patch clamp on CHO cells stably expressing hERG
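Also: peak tail current of the secondary pulse compared with the same well before compound.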

Sequence of human ether-à-go-go-related gene (hERG) potassium channel (Q12809 whole entry, looked up): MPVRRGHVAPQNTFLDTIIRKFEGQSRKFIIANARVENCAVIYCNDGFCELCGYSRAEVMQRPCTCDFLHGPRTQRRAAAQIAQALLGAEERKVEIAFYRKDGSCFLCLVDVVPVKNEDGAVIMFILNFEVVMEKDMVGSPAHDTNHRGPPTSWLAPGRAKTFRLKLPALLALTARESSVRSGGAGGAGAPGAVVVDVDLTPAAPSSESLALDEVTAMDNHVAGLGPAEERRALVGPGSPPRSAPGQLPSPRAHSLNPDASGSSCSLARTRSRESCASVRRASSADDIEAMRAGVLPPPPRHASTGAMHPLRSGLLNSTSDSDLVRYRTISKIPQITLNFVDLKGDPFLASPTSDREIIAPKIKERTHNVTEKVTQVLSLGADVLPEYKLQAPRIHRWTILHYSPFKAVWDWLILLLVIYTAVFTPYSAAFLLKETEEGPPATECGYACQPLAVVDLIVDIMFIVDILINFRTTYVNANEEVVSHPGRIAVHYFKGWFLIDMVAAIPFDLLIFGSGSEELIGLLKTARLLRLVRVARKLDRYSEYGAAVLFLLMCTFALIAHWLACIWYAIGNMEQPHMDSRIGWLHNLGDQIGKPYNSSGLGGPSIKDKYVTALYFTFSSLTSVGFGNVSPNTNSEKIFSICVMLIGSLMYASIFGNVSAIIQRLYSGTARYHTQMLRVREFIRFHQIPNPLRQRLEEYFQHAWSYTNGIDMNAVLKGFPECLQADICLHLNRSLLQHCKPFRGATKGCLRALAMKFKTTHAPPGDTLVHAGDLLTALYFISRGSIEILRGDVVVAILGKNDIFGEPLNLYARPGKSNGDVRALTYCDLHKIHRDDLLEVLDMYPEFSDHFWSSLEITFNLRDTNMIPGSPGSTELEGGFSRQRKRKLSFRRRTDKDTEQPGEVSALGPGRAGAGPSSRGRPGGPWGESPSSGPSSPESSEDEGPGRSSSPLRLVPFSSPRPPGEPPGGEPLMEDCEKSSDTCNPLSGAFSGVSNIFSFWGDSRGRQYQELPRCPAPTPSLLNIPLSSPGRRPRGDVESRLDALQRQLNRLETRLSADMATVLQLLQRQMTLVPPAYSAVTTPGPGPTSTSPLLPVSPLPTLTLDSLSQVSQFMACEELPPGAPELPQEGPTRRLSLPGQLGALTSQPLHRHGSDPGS

Compound	hERG current change (%, negative = inhibition) at 10uM
COC(=O)C1=C(CSCc2ccccc2)NC(=O)NC1c1cc(C)ccc1C (stereo not drawn)	-1.35%
Cn1c(=O)cc(SCC(=O)N2CCN(C3CCCCC3)CC2)c2ccccc21	-29.4%
Cc1cccc(N=C2N=C(N)c3ccccc32)c1	-33.1%
COC(=O)C1C(=O)C=C(Nc2ccc(F)cc2)CC1c1ccc(OC)cc1 (stereo not drawn)	11%
COc1ccc(NS(=O)(=O)c2cccc(C(=O)N(C)CC(=O)Nc3ccc(C)cc3)c2)cc1	-32.6%
Cc1cc(C)cc(NC(=O)NCC2CCN(Cc3cc(C)ccc3C)CC2)c1	-51%
Cc1c(Cl)cccc1N1CC(C(=O)Nc2nccs2)CC1=O (stereo not drawn)	9.38%
O=C(COC(=O)CNC(=O)c1ccc(Cl)cc1Cl)NCc1ccco1	-9.61%
COc1cc2ccccc2cc1C(=O)OCC(=O)NC1CCS(=O)(=O)C1 (stereo not drawn)	-1.85%
NS(=O)(=O)c1ccc(N/N=C/c2cn(-c3ccccc3)nc2-c2ccccc2)c([N+](=O)[O-])c1	3.79%
O=C(CN1CCCCCC1)Nc1cccc([N+](=O)[O-])c1	-15.6%
O=C(NCCCN1CCOCC1)C(=O)N/N=C/c1c2ccccc2cc2ccccc12	-3.6%
Fc1ccccc1-c1[nH]ncc1-c1nnnn1-c1ccccc1	5.39%
CCCNC(=S)Nc1ccc(Br)cc1	11.8%
CS(=O)(=O)N(CC(=O)N1CCN(Cc2ccccc2)CC1)c1ccc2c(c1)OCCO2	-5.94%
Cc1cccc(-n2nc3c(c2NC(=O)c2cc4ccccc4o2)CS(=O)(=O)C3)c1	-17.4%
COc1ccc(OC)c(/C=N\NC(=O)c2ccc(=O)n(C)c2)c1	-0.982%
Cc1cccc(-c2c3c(nc4c2c(=O)n(C)c(=O)n4C)-c2ccccc2C3O)c1 (stereo not drawn)	8.35%
Cc1cccc(NC(=S)N2CCN(c3ccccn3)CC2)c1	4.09%

Compound	hERG current change (%, negative = inhibition) at 10uM
CCN(CC)S(=O)(=O)c1cccc(-c2nnc(SCC(=O)c3ccc(Cl)s3)n2C)c1	-52.7%
Cc1ccc(C(C)NC(=O)c2cc3cc(Br)ccc3oc2=N)cc1 (stereo not drawn)	-3.66%
O=C(c1ccccn1)N1CCN(S(=O)(=O)c2ccccc2)CC1	12.7%
Cc1nc2sccn2c(=O)c1S(=O)(=O)NCCc1ccc(Cl)cc1	16.6%
CCn1cc(Cl)c(C(=O)Nc2cccc(CN3CCOCC3)c2)n1	14.7%
CCCC(O)(CCC)C(=O)NN(C(=O)CCl)c1ccccc1	15.5%
COc1ccccc1C(=O)NC(=O)CSc1nc(C)cs1	12%
CCc1c(C(=O)NC2CCCC2)csc1C	-7.66%
CC(C)Nc1nc(Oc2cccc(Cl)c2Cl)cc(C(F)(F)F)n1	14%
O=C(NCc1ccco1)C1CC(c2cccc([N+](=O)[O-])c2)=NO1 (stereo not drawn)	-16.2%
CCC(C)[C@H](NC(=O)NCc1cccs1)C(=O)OC (stereo partly drawn)	6.41%
COc1ccc(C)cc1NC(=O)C1CC1c1ccccc1 (stereo not drawn)	-7.31%
Cc1cc(-c2ccccc2)nc2cc(C(=O)OC(C)C)nn12	-11.6%
O=C(CCSc1nc(-c2ccco2)cc(C(F)(F)F)n1)N1CCCc2ccccc21	-9.74%
O=C(O)C(=O)O.c1cc2nc(C34CC5CC(CC(C5)C3)C4)[nH]c2cn1	-4.47%
CS(=O)(=O)Nc1ccc(C(=O)NCc2ccco2)cc1	0.221%
C/C(=N/NC(=O)CN1CCN(S(=O)(=O)c2ccc(Br)cc2)CC1)c1ccco1	-68.9%
COc1ccc(N(C(=O)c2ccncc2)S(=O)(=O)c2ccc(F)cc2)cc1	16%
N#Cc1c(-c2ccccc2)cc(-c2cccs2)nc1SCC(=O)O	5.56%

Compound	hERG current change (%, negative = inhibition) at 10uM
CC(=O)Nc1cc2nc(C)n(Cc3ccccc3)c2nc1C	6.5%
CCC(c1ccccc1)c1nc(-c2ccccn2)no1 (stereo not drawn)	-6.93%
CN(CC(=O)Nc1ccc(F)cc1)C(=O)Cn1nnc(-c2ccccc2)n1	-0.128%
Cc1ccc(F)cc1N=Cc1c(O)c2ccccc2oc1=O	16.3%
CCOC(=O)NC(=O)CSc1ccc2ccccc2n1	14%
Cc1ccc(NC(=S)C2=C(O)c3ccccc3N(C)S2(=O)=O)cc1	14.5%
CCCC1=NN(c2ccc([N+](=O)[O-])cc2)C(=O)/C1=C\N(C)C	-7.95%
O=C(Cn1c(=O)n(Cc2ccco2)c(=O)c2c3c(sc21)CCCCC3)Nc1ccccc1	6.54%
CC(C)(C)c1ccc(C(=O)NC(=S)N2CCCCCC2)cc1	2.36%
S=c1[nH]nc(-c2cc(-c3ccccc3)n[nH]2)n1/N=C/c1cccc(Cl)c1	29.2%
Cc1ccc2c(c1)N(Cc1cccc(C#N)c1)C=NS2(=O)=O	9.38%
O=C(Cc1cccs1)Nc1cccc(C(=O)Nc2ccco2)c1	-37.9%
COc1ccccc1NC(=S)NNC(=O)c1ccccc1Br	-70.9%
COC(=O)c1ccc[n+](CC(=O)c2ccc(Br)cc2)c1.[Cl-]	-30.5%
CCOC(=O)c1c(NC(=O)C2CCN(S(=O)(=O)c3cccs3)CC2)sc(C)c1C	4.56%
Cc1cc(N)n(-c2ccc([N+](=O)[O-])cc2)n1	6.69%
CC1(CC(=O)N/N=C/c2ccc(-c3cccc(C(F)(F)F)c3)o2)OCCO1	-32.1%
Cc1cc(C(=O)NNc2ccc(C(C)C)cc2)n(C(C)(C)C)n1	13.6%
CCC(C)NCCCOc1ccc(Cl)cc1C(C)(C)C.O=C(O)C(=O)O (stereo not drawn)	-8.48%
